# Test results from the supplement of paper PMC8728848.
# The other results are listed elsewhere or left out.
# B1: PX9961A-pdi-456-24-456 (Parabacteroides distasonis) (protein)
# chain: KTSSTQLPTIDAISSVADLTNAVNGVYEQQATEVGSYGAEFTLLADLRSGDFQSISTVNHAGPMYRYQTGKNDEMVYSFYKLFYNSLARLNNVLAAAENLEGADVDILKGELYAMRALYHFDLARVFAKLPSTTDMNDLGIVLSTEVYPTDYIGTRATLQQTYDQILKDIETALPLLSKDKQTGHINYWGALAIRARAYLYLEKNKEALADCKEIIASSPYKLYTRDEYIGAWDKEGTNEAIFEILVTPNYNAQRNSIGYFTHASGYGECAATESFLEELAKHPGDIRTELFAKETDNGYDGTYPQKYKGRDGQIYVNNPKVVRLSEVYLIAAEAALKAGDTSAAAGYMNTLRKNRIENYTDVASITLDDILLERRLELFTEGHTAWDAWRNGKSVNNKFVGEVKPGDYRTIMAIPIGEITVSRGQLIQNPGY
# Legend:
# Experiment in all cases: glycan array binding signal (z-score within array); higher = stronger binding
# Details in all cases: glycan notation: IUPAC condensed, linker removed
# [1] = target: Gal(b1-4)GlcNAc(b1-3)Gal(b1-4)GlcNAc(b1-2)Man(a1-3)[Gal(b1-4)GlcNAc(b1-3)Gal(b1-4)GlcNAc(b1-2)Man(a1-6)]Man(b1-4)GlcNAc(b1-4)[Fuc(a1-6)]GlcNAc
# Method in brief: (§1)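 Columns mapping to the same glycan were averaged after glycan names were converted to IUPAC-condensed notation. The data come from 3228 arrays in the Consortium for Functional Glycomics database, limited to those with an available protein sequence. Binding is reported as a within-array Z-score averaged across arrays of one protein sequence and across linkers.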
# [2] = target: Gal(b1-4)GlcNAc(b1-3)Gal(b1-4)GlcNAc(b1-2)[Gal(b1-4)GlcNAc(b1-3)Gal(b1-4)GlcNAc(b1-6)]Man(a1-6)[Gal(b1-4)GlcNAc(b1-3)Gal(b1-4)GlcNAc(b1-2)Man(a1-3)]Man(b1-4)GlcNAc(b1-4)GlcNAc
# Method in brief: as §1
# [3] = target: Gal(b1-4)GlcNAc(b1-3)Gal(b1-4)GlcNAc(b1-2)[Gal(b1-4)GlcNAc(b1-3)Gal(b1-4)GlcNAc(b1-6)]Man(a1-6)[Gal(b1-4)GlcNAc(b1-3)Gal(b1-4)GlcNAc(b1-2)Man(a1-3)]Man(b1-4)GlcNAc(b1-4)[Fuc(a1-6)]GlcNAc
# Method in brief: as §1
# [4] = target: Gal(b1-4)GlcNAc(b1-3)Gal(b1-4)GlcNAc(b1-3)Gal(b1-4)GlcNAc
# Method in brief: as §1
# [5] = target: Gal(b1-4)GlcNAc(b1-3)Gal(b1-4)GlcNAc(b1-3)Gal(b1-4)GlcNAc(b1-2)Man(a1-3)[Gal(b1-4)GlcNAc(b1-3)Gal(b1-4)GlcNAc(b1-3)Gal(b1-4)GlcNAc(b1-2)Man(a1-6)]Man(b1-4)GlcNAc(b1-4)GlcNAc
# Method in brief: as §1
# [6] = target: Gal(b1-4)GlcNAc(b1-3)Gal(b1-4)GlcNAc(b1-3)Gal(b1-4)GlcNAc(b1-2)Man(a1-3)[Gal(b1-4)GlcNAc(b1-3)Gal(b1-4)GlcNAc(b1-3)Gal(b1-4)GlcNAc(b1-2)Man(a1-6)]Man(b1-4)GlcNAc(b1-4)[Fuc(a1-6)]GlcNAc
# Method in brief: as §1
# [7] = target: Gal(b1-4)GlcNAc(b1-3)Gal(b1-4)GlcNAc(b1-3)Gal(b1-4)GlcNAc(b1-2)[Gal(b1-4)GlcNAc(b1-3)Gal(b1-4)GlcNAc(b1-3)Gal(b1-4)GlcNAc(b1-6)]Man(a1-6)[Gal(b1-4)GlcNAc(b1-3)Gal(b1-4)GlcNAc(b1-3)Gal(b1-4)GlcNAc(b1-2)Man(a1-3)]Man(b1-4)GlcNAc(b1-4)[Fuc(a1-6)]GlcNAc
# Method in brief: as §1
# [8] = target: Gal(b1-4)GlcNAc(b1-3)Gal(b1-4)GlcNAc(b1-3)Gal(b1-4)GlcNAc(b1-3)Gal(b1-4)GlcNAc(b1-2)Man(a1-3)[Gal(b1-4)GlcNAc(b1-3)Gal(b1-4)GlcNAc(b1-3)Gal(b1-4)GlcNAc(b1-3)Gal(b1-4)GlcNAc(b1-2)Man(a1-6)]Man(b1-4)GlcNAc(b1-4)GlcNAc
# Method in brief: as §1
# [9] = target: Gal(b1-4)GlcNAc(b1-3)Gal(b1-4)GlcNAc(b1-3)Gal(b1-4)GlcNAc(b1-3)Gal(b1-4)GlcNAc(b1-2)Man(a1-3)[Gal(b1-4)GlcNAc(b1-3)Gal(b1-4)GlcNAc(b1-3)Gal(b1-4)GlcNAc(b1-3)Gal(b1-4)GlcNAc(b1-2)Man(a1-6)]Man(b1-4)GlcNAc(b1-4)[Fuc(a1-6)]GlcNAc
# Method in brief: as §1
# [10] = target: Gal(b1-4)GlcNAc(b1-3)Gal(b1-4)GlcNAc(b1-3)Gal(b1-4)GlcNAc(b1-3)Gal(b1-4)GlcNAc(b1-2)[Gal(b1-4)GlcNAc(b1-3)Gal(b1-4)GlcNAc(b1-3)Gal(b1-4)GlcNAc(b1-3)Gal(b1-4)GlcNAc(b1-6)]Man(a1-6)[Gal(b1-4)GlcNAc(b1-3)Gal(b1-4)GlcNAc(b1-3)Gal(b1-4)GlcNAc(b1-3)Gal(b1-4)GlcNAc(b1-2)Man(a1-3)]Man(b1-4)GlcNAc(b1-4)[Fuc(a1-6)]GlcNAc
# Method in brief: as §1
# [11] = target: Gal(b1-4)GlcNAc(b1-3)Gal(b1-4)GlcNAc(b1-3)Gal(b1-4)GlcNAc(b1-3)Gal(b1-4)GlcNAc(b1-3)Gal(b1-4)GlcNAc(b1-2)Man(a1-3)[Gal(b1-4)GlcNAc(b1-3)Gal(b1-4)GlcNAc(b1-3)Gal(b1-4)GlcNAc(b1-3)Gal(b1-4)GlcNAc(b1-3)Gal(b1-4)GlcNAc(b1-2)Man(a1-6)]Man(b1-4)GlcNAc(b1-4)GlcNAc
# Method in brief: as §1
# [12] = target: Gal(b1-4)GlcNAc(b1-3)Gal(b1-4)GlcNAc(b1-3)Gal(b1-4)GlcNAc(b1-3)Gal(b1-4)GlcNAc(b1-3)Gal(b1-4)GlcNAc(b1-2)Man(a1-3)[Gal(b1-4)GlcNAc(b1-3)Gal(b1-4)GlcNAc(b1-3)Gal(b1-4)GlcNAc(b1-3)Gal(b1-4)GlcNAc(b1-3)Gal(b1-4)GlcNAc(b1-2)Man(a1-6)]Man(b1-4)GlcNAc(b1-4)[Fuc(a1-6)]GlcNAc
# Method in brief: as §1
# [13] = target: Gal(b1-4)GlcNAc(b1-3)Gal(b1-4)GlcNAc(b1-3)Gal(b1-4)GlcNAc(b1-3)Gal(b1-4)GlcNAc(b1-3)Gal(b1-4)GlcNAc(b1-2)[Gal(b1-4)GlcNAc(b1-3)Gal(b1-4)GlcNAc(b1-3)Gal(b1-4)GlcNAc(b1-3)Gal(b1-4)GlcNAc(b1-3)Gal(b1-4)GlcNAc(b1-6)]Man(a1-6)[Gal(b1-4)GlcNAc(b1-3)Gal(b1-4)GlcNAc(b1-3)Gal(b1-4)GlcNAc(b1-3)Gal(b1-4)GlcNAc(b1-3)Gal(b1-4)GlcNAc(b1-2)Man(a1-3)]Man(b1-4)GlcNAc(b1-4)[Fuc(a1-6)]GlcNAc
# Method in brief: as §1
# [14] = target: Gal(b1-4)GlcNAc(b1-3)Gal(b1-4)GlcNAc(b1-3)Gal(b1-4)GlcNAc(b1-3)Gal(b1-4)GlcNAc(b1-3)Gal(b1-4)GlcNAc(b1-3)Gal(b1-4)GlcNAc(b1-2)Man(a1-3)[Gal(b1-4)GlcNAc(b1-3)Gal(b1-4)GlcNAc(b1-3)Gal(b1-4)GlcNAc(b1-3)Gal(b1-4)GlcNAc(b1-3)Gal(b1-4)GlcNAc(b1-3)Gal(b1-4)GlcNAc(b1-2)Man(a1-6)]Man(b1-4)GlcNAc(b1-4)GlcNAc
# Method in brief: as §1
# [15] = target: Gal(b1-4)GlcNAc(b1-3)Gal(b1-4)GlcNAc(b1-3)GalNAc
# Method in brief: as §1
# [16] = target: Gal(b1-4)GlcNAc(b1-3)Gal(b1-4)GlcNAc(b1-3)[Gal(b1-4)GlcNAc(b1-3)Gal(b1-4)GlcNAc(b1-6)]GalNAc
# Method in brief: as §1
# [17] = target: Gal(b1-4)GlcNAc(b1-3)Gal(b1-4)GlcNAc(b1-6)[Gal(b1-3)]GalNAc
# Method in brief: as §1
# [18] = target: Gal(b1-4)GlcNAc(b1-3)Gal(b1-4)[Fuc(a1-3)]GlcNAc(b1-3)Gal(b1-4)[Fuc(a1-3)]GlcNAc
# Method in brief: as §1
# [19] = target: Gal(b1-4)GlcNAc(b1-3)GalNAc
# Method in brief: as §1
# [20] = target: Gal(b1-4)GlcNAc(b1-3)[Fuc(a1-3)GlcNAc(b1-6)]Gal(b1-4)Glc
# Method in brief: as §1
# [21] = target: Gal(b1-4)GlcNAc(b1-3)[Gal(b1-4)GlcNAc(b1-6)]Gal(b1-4)GlcNAc
# Method in brief: as §1
# [22] = target: Gal(b1-4)GlcNAc(b1-3)[GlcNAc(b1-6)]Gal(b1-4)GlcNAc
# Method in brief: as §1
# [23] = target: Gal(b1-4)GlcNAc(b1-6)Gal(b1-4)GlcNAc
# Method in brief: as §1
# [24] = target: Gal(b1-4)GlcNAc(b1-6)GalNAc
# Method in brief: as §1
# [25] = target: Gal(b1-4)GlcNAc(b1-6)[Gal(b1-3)]GalNAc
# Method in brief: as §1
# [26] = target: Gal(b1-4)GlcNAc(b1-6)[Gal(b1-4)GlcNAc(b1-3)]GalNAc
# Method in brief: as §1
# [27] = target: Gal(b1-4)GlcNAc6P
# Method in brief: as §1
# [28] = target: Gal(b1-6)Gal
# Method in brief: as §1
# [29] = target: Gal3S(b1-3)GalNAc
# Method in brief: as §1
# [30] = target: Gal3S(b1-3)GlcNAc
# Method in brief: as §1
# [31] = target: Gal3S(b1-3)[Fuc(a1-4)]GlcNAc
# Method in brief: as §1
# [32] = target: Gal3S(b1-4)Glc
# Method in brief: as §1
# [33] = target: Gal3S(b1-4)Glc6S
# Method in brief: as §1
# [34] = target: Gal3S(b1-4)GlcNAc
# Method in brief: as §1
# [35] = target: Gal3S(b1-4)[Fuc(a1-3)]Glc6S
# Method in brief: as §1
# [36] = target: Gal3S(b1-4)[Fuc(a1-3)]GlcNAc
# Method in brief: as §1
# [37] = target: Gal3S(b1-4)[Fuc(a1-3)]GlcNAc6S
# Method in brief: as §1
# [38] = target: Gal3S4S(b1-4)GlcNAc
# Method in brief: as §1
# [39] = target: Gal3S6S(b1-4)GlcNAc
# Method in brief: as §1
# [40] = target: Gal3S6S(b1-4)GlcNAc6S
# Method in brief: as §1
# [41] = target: Gal4S(b1-4)GlcNAc
# Method in brief: as §1
# [42] = target: Gal4S6S(b1-4)GlcNAc
# Method in brief: as §1
# [43] = target: Gal6P(b1-4)GlcNAc
# Method in brief: as §1
# [44] = target: Gal6S(b1-3)GlcNAc
# Method in brief: as §1
# [45] = target: Gal6S(b1-3)GlcNAc6S
# Method in brief: as §1
binder,measurement,setting,value
B1,glycan array binding signal (z-score),[1],2.48
same,glycan array binding signal (z-score),[2],0.406
same,glycan array binding signal (z-score),[3],1.81
same,glycan array binding signal (z-score),[4],-0.413
same,glycan array binding signal (z-score),[5],1.46
same,glycan array binding signal (z-score),[6],1.03
same,glycan array binding signal (z-score),[7],2.11
same,glycan array binding signal (z-score),[8],0.035
same,glycan array binding signal (z-score),[9],6.49
same,glycan array binding signal (z-score),[10],0.94
same,glycan array binding signal (z-score),[11],2.59
same,glycan array binding signal (z-score),[12],0.467
same,glycan array binding signal (z-score),[13],1.72
same,glycan array binding signal (z-score),[14],7.59
same,glycan array binding signal (z-score),[15],0.087
same,glycan array binding signal (z-score),[16],0.322
same,glycan array binding signal (z-score),[17],-0.184
same,glycan array binding signal (z-score),[18],-0.001
same,glycan array binding signal (z-score),[19],-0.441
same,glycan array binding signal (z-score),[20],-0.073
same,glycan array binding signal (z-score),[21],-0.263
same,glycan array binding signal (z-score),[22],-0.258
same,glycan array binding signal (z-score),[23],-0.468
same,glycan array binding signal (z-score),[24],0.949
same,glycan array binding signal (z-score),[25],-0.289
same,glycan array binding signal (z-score),[26],0.084
same,glycan array binding signal (z-score),[27],-0.254
same,glycan array binding signal (z-score),[28],-0.515
same,glycan array binding signal (z-score),[29],-0.226
same,glycan array binding signal (z-score),[30],0.194
same,glycan array binding signal (z-score),[31],-0.263
same,glycan array binding signal (z-score),[32],-0.121
same,glycan array binding signal (z-score),[33],-0.351
same,glycan array binding signal (z-score),[34],-0.267
same,glycan array binding signal (z-score),[35],0.884
same,glycan array binding signal (z-score),[36],0.465
same,glycan array binding signal (z-score),[37],-0.124
same,glycan array binding signal (z-score),[38],-0.286
same,glycan array binding signal (z-score),[39],0.104
same,glycan array binding signal (z-score),[40],0.59
same,glycan array binding signal (z-score),[41],-0.117
same,glycan array binding signal (z-score),[42],-0.597
same,glycan array binding signal (z-score),[43],-0.361
same,glycan array binding signal (z-score),[44],-0.097
same,glycan array binding signal (z-score),[45],0.172
